# PubChem BioAssay AID2451 (National Center for Advancing Translational Sciences (NCATS), 2010)
# Out of some 290,000 compounds screened, about 2,100 (0.72%) were called active. Inconclusive results, whose numbers are uncertain, are shown with a selection of clear calls. Calls come from the whole dose curve; as a rule, active = well fitted inhibition curve with a large enough effect; inconclusive = small, poorly fitted or top-dose-only effect, or effect the other way; inactive = flat fitted curve, though single readings scatter. Where the call is inconclusive, the potency comes from a doubtful curve fit.
# Molecular target: Fructose-bisphosphate aldolase (Giardia intestinalis (strain ATCC 50803 / WB clone C6)) (UniProt A8B2U2)
# Assay: qHTS Assay for Inhibitors of Fructose-1,6-bisphosphate Aldolase from Giardia Lamblia; note: nearly all actives have a fitted effect of over 55% in size
# Details: purified Giardia FBPA; series mostly up to 59.6 µM
# Outline: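 Giardia FBPA (40 nM reagent) was preincubated 10 min at RT with compound (up to 57.5 uM final), then substrate plus GAPDH/TPI/NAD/arsenate coupling system with diaphorase/resazurin was added; resorufin fluorescence (525/598 nm) was read after 20 min.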
# Potency is the fitted concentration of half-maximal effect; tags give direction and shape of the fitted curve.
# UniProt A8B2U2, sequence (A8B2U2 whole entry, looked up): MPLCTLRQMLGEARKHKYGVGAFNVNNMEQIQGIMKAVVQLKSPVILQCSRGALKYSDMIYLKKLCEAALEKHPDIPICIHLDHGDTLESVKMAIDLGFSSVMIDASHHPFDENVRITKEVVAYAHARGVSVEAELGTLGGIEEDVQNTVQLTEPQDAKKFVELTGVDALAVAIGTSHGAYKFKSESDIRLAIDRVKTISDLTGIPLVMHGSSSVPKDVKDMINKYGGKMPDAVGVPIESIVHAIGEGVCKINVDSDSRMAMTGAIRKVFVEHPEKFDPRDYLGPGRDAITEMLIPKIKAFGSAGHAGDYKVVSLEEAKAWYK
row,SMILES,Potency
1,Cc1ccc[n+](/C(C(=S)NCc2ccco2)=C(/[O-])c2ccccc2Cl)c1,"inconclusive: 25.1 µM [inhibitor, partial curve]"
2,O=C(NNc1cccc(Cl)n1)C(F)(F)F,active: 19.9 µM
3,CC(=O)Nc1ccc(N=NN2CCOCC2)cc1,inactive
4,Cn1c(/C(C#N)=C(\O)c2ccc(Cl)s2)nc2ccccc21,"inconclusive: 14.1 µM [inhibitor, partial curve]"
5,COc1ccc(CN(CC2CCC(C(=O)O)CC2)C(=S)Nc2cc(Cl)ccc2OC)cc1 (stereo not drawn),"inconclusive: 28.1 µM [inhibitor, single point]"
6,O=C(Nc1cccnc1)c1cc(-c2ccc(F)cc2)on1,inactive
7,CC(/C=C/c1ccccc1)=N\NC(=O)c1cc(C)nc2ccccc12,"inconclusive: 14.1 µM [inhibitor, partial curve]"
8,COc1ccc(Br)cc1/C=C/C(=O)NC(=S)Nc1ccc(CN2CCOCC2)cc1,inactive
9,O=C1/C(=C\c2ccco2)SC(=S)N1c1ccccc1,"inconclusive: 25.1 µM [inhibitor, single point]"
10,CCOc1cc(CNc2ccc(N3CCCC3)cc2)cc(Cl)c1OC,"inconclusive: 1.58 µM [inhibitor, full curve]"
11,Cc1ccc2cc(C3C(C#N)=C(N)Oc4c3ccc3cccnc43)c(=O)[nH]c2c1 (stereo not drawn),"inconclusive: 12.6 µM [inhibitor, partial curve]"
12,Cc1ccc(NC(=O)c2cc(C)nc3ccccc23)c(Br)c1,inactive
13,O=C(CS(=O)c1ccc(C(F)(F)F)cc1[N+](=O)[O-])Oc1ccc(Cl)cc1 (stereo not drawn),"inconclusive: 14.1 µM [inhibitor, partial curve]"
14,CCC1(C)Cc2nc3sc(C(=O)O)c(N)c3cc2CO1 (stereo not drawn),"inconclusive: 15.8 µM [inhibitor, single point]"
15,CC(=O)Nc1c2c(nn1-c1cccc(C)c1)CSC2,"inconclusive: 14.1 µM [inhibitor, single point]"
16,Cc1sc2nc(CSC(C)C(=O)N3CCOCC3)[nH]c(=O)c2c1C (stereo not drawn),"inconclusive: 25.1 µM [inhibitor, single point]"
17,Cc1cc(C)n(CC(O)Cn2c(C)c(C)c3ccccc32)n1 (stereo not drawn),"inconclusive: 22.3 µM [inhibitor, single point]"
18,N#CC1(c2ccccc2)CCC(NCCc2ccccc2)CC1 (stereo not drawn),"inconclusive: 22.4 µM [inhibitor, partial curve]"
19,COc1ccc(CNCC(O)COc2ccc(C(C)(C)c3ccccc3)cc2)cc1 (stereo not drawn),"inconclusive: 15.8 µM [inhibitor, partial curve]"
20,CC(C)(C)NC(=O)C(=O)NNC(=O)c1cccc([N+](=O)[O-])c1,"inconclusive: 15.8 µM [inhibitor, partial curve]"
21,Cn1c(COc2ccccc2)nnc1SCCN1CCOCC1,"inconclusive: 25.1 µM [inhibitor, partial curve]"
22,O=C(CSc1n[nH]c(-c2ccco2)n1)Nc1ccc(Br)cc1,"inconclusive: 11.2 µM [inhibitor, partial curve]"

row,SMILES,Potency
1,Cc1cccc(NC(=O)c2cc3ccccc3o2)c1,"inconclusive: 12.6 µM [inhibitor, partial curve]"
2,COc1ccc(CN2CCN(CCCCOc3ccc(Cl)cc3)CC2)c(OC)c1OC,active: 17.7 µM
3,CC1CCCCN1CC(=O)NC(c1ccccc1)c1ccccc1 (stereo not drawn),"inconclusive: 11.2 µM [inhibitor, partial curve]"
4,CC(=O)NCCc1cnc[nH]1,"inconclusive: 28.2 µM [inhibitor, partial curve]"
5,Cc1nn(-c2ccccc2)c(C)c1C1C(C#N)=C(N)Oc2n[nH]c(C)c21 (stereo not drawn),"inconclusive: 14.1 µM [inhibitor, partial curve]"
6,S=C(Nc1ccc2nsnc2c1)N1CCCCC1,"inconclusive: 5 µM [inhibitor, partial curve]"
7,O=C(COC(=O)c1c2c(nc3ccccc13)/C(=C/c1ccco1)CC2)NC1CCCC1,"inconclusive: 12.6 µM [inhibitor, partial curve]"
8,Cc1cc(N2CCOCC2)nc2ccc(NC(=S)N3CCN(c4ccccc4)CC3)cc12,"inconclusive: 7.06 µM [inhibitor, partial curve]"
9,Cc1cc(C)nc(SCCCNCc2c(F)cccc2Cl)n1,"inconclusive: 17.8 µM [inhibitor, partial curve]"
10,Nc1nc(N)c(N=Nc2ccc(Cl)cc2)c(=O)[nH]1,inactive
11,O=C(NC(N1CCCCCC1)C(Cl)(Cl)Cl)c1ccccc1Cl (stereo not drawn),inactive
12,COc1cc(O)c(C(CCN2CCOCC2)c2ccc3c(c2)OCO3)c(OC)c1 (stereo not drawn),"inconclusive: 15.8 µM [inhibitor, single point]"
13,COc1ccc(C(=O)NC(=S)N2CCN(c3ccccc3OC)CC2)cc1OC,"inconclusive: 2.82 µM [inhibitor, partial curve]"
14,COc1ccc(-n2c(=S)[nH]c3cc(C(=O)NCc4cccnc4)ccc3c2=O)c(OC)c1,"inconclusive: 11.2 µM [inhibitor, partial curve]"
15,CCCCn1c(NC(=O)c2ccco2)c(S(=O)(=O)c2ccc(C)cc2)c2nc3ccccc3nc21,"inconclusive: 2.81 µM [inhibitor, full curve]"
16,Cc1cc(C(=O)Nc2nc(-c3ccccn3)cs2)ccc1[N+](=O)[O-],"inconclusive: 15.8 µM [inhibitor, single point]"
17,S=C(Nc1cccc2ccccc12)N1CCN(c2ncccn2)CC1,"inconclusive: 19.9 µM [inhibitor, single point]"
18,Cc1cccc(C(=O)NC(=S)N(C)C2CCCCC2)c1,"inconclusive: 31.6 µM [inhibitor, partial curve]"
19,Cc1ccc(C2C(C#N)=C(N)Oc3cc4c(cc32)OCO4)cc1 (stereo not drawn),"inconclusive: 31.5 µM [inhibitor, single point]"
20,COc1ccccc1-n1c(O)c(/C=N/NC(=S)Nc2ccccc2)c(=O)[nH]c1=S,"inconclusive: 7.06 µM [inhibitor, partial curve]"
21,CCOC(=O)c1c(-c2ccccc2)oc2ccc(OC(C)C(=O)O)cc12 (stereo not drawn),"inconclusive: 22.3 µM [activator, partial curve]"
